To fix the notation:
B1: OR4K15 (parent)
chain: GUUAACGGUCAUAGGCCAUGGAAACUAGGAGCACCAUUUCGCUGCCAGUGAAGAAAUGAACAAAGAAAAUCUGGGCCAGGCAGGCAUCAAAAGAAAUAGUCUUGCGCUCAACCAGAAAGUCUGUAAUCAUUUUAAGGGUA

The source gives no read counts; variants with many changes may rest on few reads.

Variants of B1 are the subject of the series. Briefly: self-cleavage, relative activity (ratio to wild type); higher = more cleavage; in vitro, sequencing; the parent is a self-cleaving ribozyme.
Consider A36G A92G C107U, for which the self-cleavage is 0.02.

As for A33G U37C A92G U130C, the self-cleavage came to 0.44.

On to A33G A117G A129G, for which the self-cleavage worked out at 0.72.

As for G31A A67C U122C, the self-cleavage turned out to be 1.6.

Take A33G A52G U57C U72C A89U A116G: the self-cleavage came to 0.05.

A36G U49A C88A U127C: the self-cleavage came out at 1.66.

As for A33G A92G U132C, the self-cleavage came out at 0.76.

A36G U49C A92G A118G U132C: the self-cleavage was 0.91.

For the variant A33G U72C A92U A111G C121U, the self-cleavage came out at 0.

Take A36G A52G U70C: the self-cleavage came to 1.06.

For the variant A36G A66G U70C U127C, the self-cleavage came out at 0.42.

Take C34U A63G U132C U139C: the self-cleavage is 2.5.

As for A33G U39C U103C, the self-cleavage was determined as 0.58.

As for A33G A78U U122A, the self-cleavage turned out to be 0.06.

Take A33G A52G A55G A66G C107U A111G U122C: the self-cleavage is 0.

Take A33G U100C A126G A129G: the self-cleavage was found to be 1.45.

Consider A36G U57C A68G U122C, for which the self-cleavage worked out at 0.31.

For A33G U43C U49C U108C A129G, the self-cleavage came out at 0.01.

On to A36G A69G U127C A129G U139C, for which the self-cleavage amounted to 0.34.

On to A36G A63G A94G A110G, for which the self-cleavage was 0.19.

With C34U A56G G79A A135G, the self-cleavage amounted to 0.21.

Take A33U U43A A95G: the self-cleavage came to 0.13.

For the variant A33G A36G A52G U102C G104A C113A A126G, the self-cleavage was 0.01.

As for A36G A52G A60G U122C, the self-cleavage is 1.19.

On to A36G A55G A92G A126G, for which the self-cleavage came out at 0.74.

On to A33G A64G A90G U122C U130C, for which the self-cleavage came out at 0.16.

On to C35U U39A A91G A116G U131C, for which the self-cleavage turned out to be 0.16.

For A33C U38A U43G A90G A95G A96G, the self-cleavage was found to be 1.95.

Turning to C34A A60U A126G, the self-cleavage came to 1.52.

Consider A36G U37C A140G, for which the self-cleavage was 1.62.

C32U A66U U102C A118G: the self-cleavage came out at 1.21.

In the case of A36G A62G A68U, the self-cleavage turned out to be 1.4.

Regarding C34U A68G U103G A114C, the self-cleavage was determined as 0.02.

In the case of A33G U39C A82U C85G U127C, the self-cleavage stood at 0.09.

As to A36G A63G U120C, the self-cleavage worked out at 2.78.

With A36C C40A A47G U127C, the self-cleavage was 0.95.

On to A33G A69G A86U A96G, for which the self-cleavage turned out to be 0.47.

Consider C32U A94G A118G, for which the self-cleavage was determined as 0.99.

Consider C35U A82U A89G A92U A110G, for which the self-cleavage stood at 0.01.

As for A36U A47U U87C U124C, the self-cleavage stood at 0.51.

On to A33U A69C U108A U122C, for which the self-cleavage worked out at 0.02.

On to A33U A55G G136A, for which the self-cleavage was determined as 1.62.

In the case of A33G A47G A69U, the self-cleavage worked out at 0.17.

For A36C A56G A90G U102A U120C, the self-cleavage came to 0.21.

As to A36G U49C U97C, the self-cleavage amounted to 1.26.

In the case of A33G A118G A125G, the self-cleavage was 0.01.

A33G U43C G44A A55G A64G A67G: the self-cleavage worked out at 1.05.

C35U A59G A95G: the self-cleavage worked out at 0.86.

Consider A33U A95G U108C, for which the self-cleavage turned out to be 0.02.

Consider A33C U49A A62G A92G, for which the self-cleavage came to 1.01.

Regarding G31A A66G U70C, the self-cleavage turned out to be 0.35.

For A33G A64G U108C A116G U120A, the self-cleavage was 0.

In the case of A33G U38C A63U, the self-cleavage turned out to be 1.26.

In the case of A33U A60G G84A, the self-cleavage was 2.13.

Take A33G A63U A67G A69G U70C: the self-cleavage came out at 0.13.

Turning to A33G A67U A89C U120C, the self-cleavage worked out at 0.14.

Turning to A33G A91G U132C, the self-cleavage was found to be 0.7.

As for C32U U43C A114G, the self-cleavage was found to be 0.9.

Regarding A33G U49A A54G A60U A114G U131C, the self-cleavage was 0.03.

For the variant A33U A63G U108A A114G U120C, the self-cleavage came to 0.01.

Consider C35U A51U G58A, for which the self-cleavage came to 0.75.

In the case of G31U A92G U108C U132A, the self-cleavage was 0.02.

Turning to A36G U57C A90G U108G A110U, the self-cleavage was 0.01.

For the variant A36G U38C U39A A98G, the self-cleavage turned out to be 1.36.

On to A36G U38C A82U, for which the self-cleavage turned out to be 0.22.

For the variant A33G A59G A90G U102C U130C, the self-cleavage was 1.73.

Consider C32U U38C A90U A126G, for which the self-cleavage amounted to 1.57.

Consider A33G A64G U87C A114G A117G, for which the self-cleavage amounted to 0.22.

Take A33G A86U A89G: the self-cleavage stood at 0.53.

C32U A36G A111G U122A: the self-cleavage was found to be 0.02.

In the case of A36G A66G U122A, the self-cleavage was determined as 2.04.

Turning to C34U U49C U72A A78U A114G, the self-cleavage was found to be 0.05.

In the case of A33G A68G A82U, the self-cleavage stood at 0.09.

For A33U A89C U120C, the self-cleavage came out at 0.66.

Take A33G A67G U87G U132C: the self-cleavage came to 0.16.

Turning to A33C U43C A55G A90U U124C, the self-cleavage turned out to be 2.09.

Consider A36G A55G A68G U97C U103C, for which the self-cleavage was determined as 0.17.

Take A33G G58U A90G: the self-cleavage stood at 0.25.

Turning to A33G A54G A68G, the self-cleavage was determined as 1.05.

As for C34A A52G A64G, the self-cleavage stood at 0.7.

As for A33G U38C A82U, the self-cleavage was 0.35.

For the variant C35U U57G A68G A94G A116G, the self-cleavage is 0.27.

Take A33G A62G A118G: the self-cleavage is 0.58.
